Reference: US20220306753A1 (JN BIOSCIENCES, published 2022)

Assays:
[1] = molecular target: T1, CD80-FLAG-GPI (human); assay: flow cytometry on CHO-K1/CD80 cells, binder at 625 ng/ml, PE anti-human IgG
T1 construct: also called CHO-K1/CD80 cells
T1 chain: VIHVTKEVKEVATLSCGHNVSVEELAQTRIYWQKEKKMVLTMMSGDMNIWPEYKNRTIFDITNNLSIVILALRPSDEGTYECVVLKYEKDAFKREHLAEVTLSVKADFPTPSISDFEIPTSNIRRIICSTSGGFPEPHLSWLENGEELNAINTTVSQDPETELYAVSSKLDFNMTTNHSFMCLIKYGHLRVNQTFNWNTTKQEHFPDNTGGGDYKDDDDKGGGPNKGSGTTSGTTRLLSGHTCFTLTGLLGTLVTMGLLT
Description: (§1) CHO-K1 stable transfectants expressing CD80-FLAG-GPI (CHO-K1/CD80) and CD86-FLAG-GPI (CHO-K1/CD86) were generated by electroporation with pFCm553 and pFCm554, respectively, as described above. Binding of HuABC2-CH3-CTLA4YE, HuABC2-Ck-CTLA4YE, HuABC2-CTLA4YE-VH and HuABC2-CTLA4YE-Vk to CHO-K1/CD80 and CHO-K1/CD86 cells was analyzed by flow cytometry. Belatacept (also known as LEA29Y and Nulojix; SEQ ID NO:49), which is a CTLA4-Ig fusion protein carrying a substitution of an alanine residue to a tyrosine residue at position 29 (A29Y) and another substitution of a leucine residue to a glutamate residue at position 104 (L104E) of SEQ ID NO:10 (Larsen et al., Am. J. Transplant. 5:443-453, 2005; Oshima et al., Protein Eng. Des. Sel. 29:159-167, 2016), was purchased from Creative Biomart (Cat. No. THP-0109, Shirley, N.Y.) and used as a reference in the experiments.
(§2) Purified test samples (HuABC2-CH3-CTLA4YE, HuABC2-Ck-CTLA4YE, HuABC2-CTLA4YE-VH, and HuABC2-CTLA4YE-Vk) and belatacept, starting at 10 μg/mland five steps of 4-fold serial dilutions, were incubated with CHO-K1/CD80 or CHO-K1/CD86 cells in FACS Buffer (PBS containing 0.5% BSA and 0.05% sodium azide) for 30 min at 4° C. After washing with FACS Buffer, cells were incubated with PE-labeled goat anti-human IgG antibody (SouthernBiotech, Birmingham, Ala.) in FACS Buffer for 20 min at 4° C. After washing and suspension in FACS Buffer, stained cells were subjected to flow cytometry.
(§3) The binding patterns of HuABC2-CH3-CTLA4YE, HuABC2-Ck-CTLA4YE, HuABC2-CTLA4YE-VH, HuABC2-CTLA4YE-Vk and belatacept to CHO-K1/CD80 cells are shown in FIG. 9A. While the binding of each of HuABC2-CTLA4YE-VH and HuABC2-CTLA4YE-Vk to CD80 was only slightly weaker than the binding of belatacept, the binding of HuABC2-CH3-CTLA4YE and HuABC2-Ck-CTLA4YE was a lot weaker than that of belatacept.

[2] = molecular target: T2, CD86-FLAG-GPI (human); assay: flow cytometry on CHO-K1/CD86 cells, binder at 625 ng/ml, PE anti-human IgG
T2 construct: also called CHO-K1/CD86 cells
T2 chain: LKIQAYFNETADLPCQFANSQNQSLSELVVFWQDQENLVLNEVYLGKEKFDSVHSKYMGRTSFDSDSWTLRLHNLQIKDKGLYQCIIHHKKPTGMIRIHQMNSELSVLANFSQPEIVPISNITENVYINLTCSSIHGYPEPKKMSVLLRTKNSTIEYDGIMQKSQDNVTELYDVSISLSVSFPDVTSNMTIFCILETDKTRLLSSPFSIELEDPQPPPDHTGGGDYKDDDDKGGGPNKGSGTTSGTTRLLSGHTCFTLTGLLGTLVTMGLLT
Description: as §1, §2
as §3, with “CHO-K1/CD86” for “CHO-K1/CD80”, “9B. Like the case with CHO-K1/CD80 cells, while” for “9A. While”, “CD86” for “CD80”, “the binding” for “that”

[3] = molecular target: T3, Human IL-2R beta/CD122 Protein, Fc Tag (human, UniProt P14784 27-239); assay: ELISA, plate coated with 1 µg/ml CD122 Fc tag protein, binder from 0.5 µg/ml in 2-fold dilutions, anti-human kappa-HRP
T3 construct: Bought protein coated on the ELISA plate; also called Cat. No. ILB-H5253, Acro Biosystems; not shown: Fc tag of the bought protein
T3 sequence (looked up): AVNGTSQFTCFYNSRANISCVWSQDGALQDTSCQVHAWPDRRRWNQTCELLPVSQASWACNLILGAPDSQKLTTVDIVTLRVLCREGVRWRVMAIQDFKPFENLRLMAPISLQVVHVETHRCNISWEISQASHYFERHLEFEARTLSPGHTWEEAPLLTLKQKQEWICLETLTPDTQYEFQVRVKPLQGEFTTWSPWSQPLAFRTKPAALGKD
Description: (§4) Binding of HuABC2-CTLA4 and HuABC2-CTLA4YE to human CD122, CD80 and CD86 was analyzed by ELISA. Wells of an ELISA plate were coated with 1 μg/ml of either CD122 (Human IL-2R beta/CD122 Protein, Fc Tag; Cat. No. ILB-H5253, Acro Biosystems, Newark, Del.), CD80 (Human B7-1/CD80 Protein, Mouse IgG2a Tag; Cat. No. B71-H52A4, Acro Biosystems) or CD86 (Human B7-2/CD86 Protein, Fc Tag; Cat. No. CD6-H5257, Acro Biosystems) in PBS. After blocking with Blocking Buffer and washing the wells with Wash Buffer, transiently expressed HuABC2-CTLA4 and HuABC2-CTLA4YE at 0.5 μg/ml and serial 2-fold dilutions in ELISA Buffer were applied to the wells in duplicates. Purified HuABC2 at 0.5 μg/mland serial 2-fold dilutions was used as a control. After incubation for 1 hr at room temperature and washing with Wash Buffer, bound antibodies were detected using HRP-conjugated goat anti-human kappa chain polyclonal antibody. After incubation for 30 min and washing with Wash Buffer, color development was initiated by adding ABTS substrate and stopped with 2% oxalic acid. Absorbance was read at 405 nm.

[4] = molecular target: T4, Human B7-2/CD86 Protein, Fc Tag (human, UniProt P42081 24-247); assay: ELISA, plate coated with 1 µg/ml CD86 Fc tag protein, binder from 0.5 µg/ml in 2-fold dilutions, anti-human kappa-HRP
T4 construct: Bought protein coated on the ELISA plate; also called Cat. No. CD6-H5257, Acro Biosystems; not shown: Fc tag of the bought protein
T4 sequence (looked up): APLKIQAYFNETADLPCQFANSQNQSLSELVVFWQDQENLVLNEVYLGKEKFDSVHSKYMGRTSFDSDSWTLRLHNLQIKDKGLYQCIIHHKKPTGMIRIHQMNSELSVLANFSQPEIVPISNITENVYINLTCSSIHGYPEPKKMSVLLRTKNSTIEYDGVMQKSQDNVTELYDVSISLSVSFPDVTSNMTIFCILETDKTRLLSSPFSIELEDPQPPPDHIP
Description: as §4

[5] = molecular target: T5, Human B7-1/CD80 Protein, Mouse IgG2a Tag (human, UniProt P33681 35-242); assay: ELISA, plate coated with 1 µg/ml CD80 mouse IgG2a tag protein, binder from 0.5 µg/ml in 2-fold dilutions, anti-human kappa-HRP
T5 construct: Bought protein coated on the ELISA plate; also called Cat. No. B71-H52A4, Acro Biosystems; not shown: mouse IgG2a tag of the bought protein
T5 sequence (looked up): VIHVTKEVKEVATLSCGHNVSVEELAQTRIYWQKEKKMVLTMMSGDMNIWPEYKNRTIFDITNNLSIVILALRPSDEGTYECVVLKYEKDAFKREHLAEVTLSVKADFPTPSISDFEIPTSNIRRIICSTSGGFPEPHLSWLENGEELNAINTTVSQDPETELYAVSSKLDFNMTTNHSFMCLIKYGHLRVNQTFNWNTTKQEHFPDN
Description: as §4

mean channel fluorescence (MCF) [1]: 425
mean channel fluorescence (MCF) [2]: 221
binding result [3]: binds
binding result [4]: binds
binding result [5]: binds
B1: HuABC2-CTLA4YE (other)
heavy: EVQLVESGGGLVQPGGSLRLSCAASGFTFSDFYMEWVRQAPGKGLEWIAASRNKANDYTTEYSASVKGRFIVSRDDSKNSLYLQMNSLKTEDTAVYYCARSYYRYDGMDYWGQGTTVTVSSASTKGPSVFPLAPSSKSTSGGTAALGCLVKDYFPEPVTVSWNSGALTSGVHTFPAVLQSSGLYSLSSVVTVPSSSLGTQTYICNVNHKPSNTKVDKKV[gap - human IgG1 Fc with changes]SGGGGSGMHVAQPAVVLASSRGIASFVCEYASPGKYTEVRVTVLRQADSQVTEVCAATYMMGNELTFLDDSICTGTSSGNQVNLTIQGLRAMDTGLYICKVELMYPPPYYEGIGNGTQIYVIDPEPCPDSD
light: EIVLTQSPATLSLSPGERATLSCSAISSVSYMYWYQQKPGQAPRLLIYDTSNLVSGVPARFSGSGSGTDYTLTISSLEPEDFAVYYCQQWNTYPYTFGGGTKVEIKRTVAAPSVFIFPPSDEQLKSGTASVVCLLNNFYPREAKVQWKVDNALQSGNSQESVTEQDSKDSTYSLSSTLTLSKADYEKHKVYACEVTHQGLSSPVTKSFNRGEC
notes: Bifunctional molecule: HuABC2 IgG1 (L234A/L235A) with variant CTLA-4 extracellular domain (A29Y, L104E); encoded by pHC625/pHC622; also called HuABC2-CH3-CTLA4YE
